{"source": "paper PMC6919601", "about": "“Identification of Plasmodium dipeptidyl aminopeptidase allosteric inhibitors by high throughput screening” (PLoS ONE, 2019)", "note": "Out of some 110,000 compounds screened, about 230 (0.21%) showed an effect of 50% or more. The list shows a part of the results.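 Note: 30 min substrate incubation versus DMSO and 10 µM JCP410 controls.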", "data": [{"biological_target": "DPAP1 (Plasmodium falciparum, UniProt Q8IIJ9)", "sequence (Q8IIJ9 whole entry, looked up)": "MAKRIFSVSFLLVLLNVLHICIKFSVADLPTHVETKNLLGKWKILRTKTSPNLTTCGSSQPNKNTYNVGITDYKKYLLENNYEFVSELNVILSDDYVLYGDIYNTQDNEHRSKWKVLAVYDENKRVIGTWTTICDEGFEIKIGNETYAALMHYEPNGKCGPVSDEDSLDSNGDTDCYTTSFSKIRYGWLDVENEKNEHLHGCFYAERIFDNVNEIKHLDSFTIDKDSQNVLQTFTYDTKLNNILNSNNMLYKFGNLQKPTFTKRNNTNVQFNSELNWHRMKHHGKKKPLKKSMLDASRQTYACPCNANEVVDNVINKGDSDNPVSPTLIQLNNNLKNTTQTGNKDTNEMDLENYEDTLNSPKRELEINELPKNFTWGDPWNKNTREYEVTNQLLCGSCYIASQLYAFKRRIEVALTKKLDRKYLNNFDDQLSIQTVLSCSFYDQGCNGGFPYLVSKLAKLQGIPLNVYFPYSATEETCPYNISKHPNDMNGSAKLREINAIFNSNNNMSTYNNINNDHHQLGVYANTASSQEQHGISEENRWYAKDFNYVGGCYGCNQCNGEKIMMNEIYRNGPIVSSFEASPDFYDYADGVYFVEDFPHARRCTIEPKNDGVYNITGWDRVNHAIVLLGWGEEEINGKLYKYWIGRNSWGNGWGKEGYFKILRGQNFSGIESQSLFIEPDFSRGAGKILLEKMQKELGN", "assay": "primary screen, percent inhibition; read by cleavage of a fluorogenic dipeptide substrate; higher = more effect of the substance", "set-up": "species or system P. falciparum D10 trophozoite lysates; single well", "units": {"% Inhibition @ 10 uM": "%"}, "values": [{"smiles": "OC1CCCN(Cc2ccc(Br)cc2)C1", "note": "(stereo not drawn)", "% Inhibition @ 10 uM": -0.828}, {"smiles": "O=C(c1cc(-c2ccccc2)c(N2CCCCC2)s1)N1CCC(N2CCCCC2)CC1", "% Inhibition @ 10 uM": -6.64}, {"smiles": "Fc1cccc(-c2nc3ncccc3o2)c1", "% Inhibition @ 10 uM": -0.92}, {"smiles": "COCc1nn2cc(-c3ccc(F)cc3)nc2s1", "% Inhibition @ 10 uM": -6.43}, {"smiles": "CCOC(=O)c1sc2nccc(NCc3ccccc3)c2c1N", "% Inhibition @ 10 uM": -1.07}, {"smiles": "Cc1[nH]c2ccc(C(=O)NCCCN(C)C3CCCCC3)cc2c1C", "% Inhibition @ 10 uM": 2.79}, {"smiles": "CC(C)(C)NC(=O)NS(=O)(=O)c1ccccc1Cl", "% Inhibition @ 10 uM": -2.77}, {"smiles": "O=C(c1ccco1)N1CCN(S(=O)(=O)c2ccc(-n3cnnn3)cc2)CC1", "% Inhibition @ 10 uM": 2.29}, {"smiles": "Cc1ccc(NC(=O)c2ccccc2F)cc1Cl", "% Inhibition @ 10 uM": 1.29}, {"smiles": "Cc1cc(O)nc(SCCOc2ccccc2)n1", "% Inhibition @ 10 uM": 2.67}, {"smiles": "O=C1C2C3c4ccccc4C(c4ccccc43)C2C(=O)N1CNc1ccccc1", "note": "(stereo not drawn)", "% Inhibition @ 10 uM": 2.03}, {"smiles": "Clc1ccc(C2NCc3ccccc3-n3cccc32)cc1", "note": "(stereo not drawn)", "% Inhibition @ 10 uM": 4.61}, {"smiles": "COc1ccc(C2CC(=O)N=C(NC(=O)c3ccc(C(C)(C)C)cc3)N2)cc1", "note": "(stereo not drawn)", "% Inhibition @ 10 uM": 2.65}, {"smiles": "CCOCCCNC(=O)c1ccc(-c2nc(CS(=O)(=O)c3ccc(C)cc3)c(C)o2)cc1", "% Inhibition @ 10 uM": -2.37}, {"smiles": "COc1ccc(C(=O)O)cc1COc1cc(C)ccc1C", "% Inhibition @ 10 uM": 3.17}, {"smiles": "COc1ccccc1N1C(=O)C2C(c3ccccc3C)OC3(C(=O)c4ccccc4C3=O)C2C1=O", "note": "(stereo not drawn)", "% Inhibition @ 10 uM": 0.247}, {"smiles": "Cc1ccsc1CNn1cnnc1SCc1ccc(Cl)cc1", "% Inhibition @ 10 uM": 2.7}, {"smiles": "CN(C)CCNC(=O)c1nn(C)c2c1CS(=O)(=O)c1ccccc1-2", "% Inhibition @ 10 uM": -5.37}, {"smiles": "COc1ccc(-c2cc(C(F)(F)F)n3nc(C(=O)NCc4cn(C)nc4C)c(Cl)c3n2)cc1", "% Inhibition @ 10 uM": -1.21}, {"smiles": "N#CCCC12CCCCC1=Nc1ccccc12", "note": "(stereo not drawn)", "% Inhibition @ 10 uM": -8.22}, {"smiles": "CCOC(=O)c1cnc2c(Cl)c(Cl)ccc2c1O", "% Inhibition @ 10 uM": 3.01}, {"smiles": "CC(C)Cc1cc(C(=O)NCc2ccc(F)cc2)no1", "% Inhibition @ 10 uM": -10}, {"smiles": "Cc1nc2c3ccccc3nc(SCC(=O)N3CC(C)CC(C)C3)n2n1", "note": "(stereo not drawn)", "% Inhibition @ 10 uM": -4.75}, {"smiles": "COc1cccc2c3c(c[n+](C)c12)sc1cc(F)ccc13", "% Inhibition @ 10 uM": 19.8}, {"smiles": "CN(C)CCNC(=O)CCCN1C(=O)c2ccccc2C1=O", "% Inhibition @ 10 uM": 1.91}, {"smiles": "Cc1cc(C)c2c(n1)sc1c(=O)oc(C)nc12", "% Inhibition @ 10 uM": -0.13}, {"smiles": "Cc1cc(C(=O)Nc2cccc(C(=O)O)c2)oc1C", "% Inhibition @ 10 uM": 4.88}, {"smiles": "Cc1c(CNCC(C)c2ccccc2)c(C(=O)O)c(C)n1Cc1c(F)cccc1Cl", "note": "(stereo not drawn)", "% Inhibition @ 10 uM": -7.6}, {"smiles": "O=C(CN1CCCCC1)Nc1c(Cl)cc(Cl)cc1Cl", "% Inhibition @ 10 uM": 1.02}, {"smiles": "Cc1cccc(NC(=O)c2ccccc2Cl)c1", "% Inhibition @ 10 uM": -3.71}, {"smiles": "O=C(c1nc2ncccn2n1)N1CCc2ccccc2C1", "% Inhibition @ 10 uM": -1.72}, {"smiles": "COc1cc(CNC(=O)CSc2nnc(C)c3c(C)n(-c4ccccc4)nc23)cc(OC)c1OC", "% Inhibition @ 10 uM": -2.32}, {"smiles": "CCCCNC(=O)CCn1ccc2cc(S(=O)(=O)N3CCCC3)ccc21", "% Inhibition @ 10 uM": 1.11}, {"smiles": "COc1ccc(CN2CCc3c([nH]c4ccccc34)C2)cc1Br", "% Inhibition @ 10 uM": 0.317}, {"smiles": "O=C(NC(N1CCOCC1)(C(F)(F)F)C(F)(F)F)c1ccccc1", "% Inhibition @ 10 uM": -3.69}, {"smiles": "CN(C)CCN(C)C1CCCCCCC1", "% Inhibition @ 10 uM": -1.5}, {"smiles": "COc1ccc(OC)c(C2C3=C(O)CCCC3=NC(C)=C2C(=O)Nc2cccc(C)n2)c1", "note": "(stereo not drawn)", "% Inhibition @ 10 uM": -2.53}, {"smiles": "Clc1ccccc1OCCn1cnc2ccccc21", "% Inhibition @ 10 uM": 0.162}, {"smiles": "O=C(NCCc1ccccc1)C1c2ccccc2C(=O)N1Cc1ccc(F)cc1", "note": "(stereo not drawn)", "% Inhibition @ 10 uM": -0.0508}, {"smiles": "COc1ccc(N(CC(=O)N2CCCC2)S(=O)(=O)c2ccccc2)cc1OC", "% Inhibition @ 10 uM": 2.42}, {"smiles": "CCOc1ccc(CNCc2c(C(=O)O)n(Cc3ccccc3F)c3cc(OC)ccc23)cc1OC", "% Inhibition @ 10 uM": -3.46}, {"smiles": "CCNC(=S)N(CCc1c(C)[nH]c2ccc(OC)cc12)Cc1cccs1", "% Inhibition @ 10 uM": 4.14}, {"smiles": "CCCC(C)NC(=O)c1c(-c2ccccc2Cl)noc1C", "note": "(stereo not drawn)", "% Inhibition @ 10 uM": 3.25}, {"smiles": "O=C(CN(c1cccc(Cl)c1)S(=O)(=O)c1ccccc1)N1CCN(Cc2ccccc2)CC1", "% Inhibition @ 10 uM": -2.03}, {"smiles": "CCn1c(C(=O)O)c(CNCCc2ccco2)c2ccc(OC)cc21", "% Inhibition @ 10 uM": -9.17}, {"smiles": "CC(C)C(=O)Nc1cccc(C(=O)Nc2ccc(C(=O)O)cc2)c1", "% Inhibition @ 10 uM": 0.727}, {"smiles": "Cc1ccc(-n2nc(C)c(/C=N/c3ccc4c5c(cccc35)C(=O)N(C)C4=O)c2O)c(C)c1", "% Inhibition @ 10 uM": -4.12}, {"smiles": "CC(C)(C)NC(=O)C(Cc1ccccc1)NS(=O)(=O)c1cccc2nsnc12", "note": "(stereo not drawn)", "% Inhibition @ 10 uM": 3.63}, {"smiles": "COc1ccc(-n2c(C)nnc2SCc2nc(-c3ccc(Cl)cc3)no2)cc1", "% Inhibition @ 10 uM": 2.89}, {"smiles": "CCOc1cc(Br)c(C(C)NC(C)=O)cc1OCC", "note": "(stereo not drawn)", "% Inhibition @ 10 uM": 3.8}, {"smiles": "O=S1(=O)CCC(NC2CCS(=O)(=O)C2)C1", "note": "(stereo not drawn)", "% Inhibition @ 10 uM": -0.239}, {"smiles": "Cc1ccnc(NS(=O)(=O)c2ccc(NC(=O)C3C4C=CC(C4)C3C(=O)O)cc2)n1", "note": "(stereo not drawn)", "% Inhibition @ 10 uM": -7.4}, {"smiles": "COc1ccc(S(=O)Cc2ccc(C(=O)NC(C)C)o2)cc1", "note": "(stereo not drawn)", "% Inhibition @ 10 uM": -1.86}, {"smiles": "CCO/C(O)=C1\\C(C)=NC2=C(C(=O)CCC2)C1c1ccc(Br)s1", "note": "(stereo not drawn)", "% Inhibition @ 10 uM": -1.75}, {"smiles": "O=C(c1ccc(Br)c(S(=O)(=O)N2CCCCC2)c1)N1CCCCC1", "% Inhibition @ 10 uM": 1.87}, {"smiles": "COc1ccc(C(=O)Nc2ccc(S(=O)(=O)NC(C)=O)cc2)cc1", "% Inhibition @ 10 uM": -5.34}, {"smiles": "O=C(O)CSc1nnc(COc2ccc3c(c2)OCO3)n1-c1ccccc1", "% Inhibition @ 10 uM": 1.15}, {"smiles": "O=S1(=O)C=C(N2CCCCC2)CC1", "% Inhibition @ 10 uM": 2.26}, {"smiles": "Cc1nc2ccccc2n1S(=O)(=O)c1cccc(Cl)c1Cl", "% Inhibition @ 10 uM": 0.736}, {"smiles": "COc1ccccc1OCC(=O)O", "% Inhibition @ 10 uM": -3.41}, {"smiles": "CC1CN/C(=C\\C(=O)CCc2ccccc2)C(=O)N1", "note": "(stereo not drawn)", "% Inhibition @ 10 uM": -4.84}, {"smiles": "COc1cc(OC)cc(C(=O)NCCC(C)C)c1", "% Inhibition @ 10 uM": -6.05}, {"smiles": "O=c1sc2cc(Br)ccc2n1CCO", "% Inhibition @ 10 uM": -4.58}, {"smiles": "COc1ccc2c(Cl)c(C(=O)Nc3ccc(C(N)=O)cc3)sc2c1", "% Inhibition @ 10 uM": 2.68}, {"smiles": "COc1ccc(CNC(=O)Cn2ncn3c(cc4sccc43)c2=O)cc1", "% Inhibition @ 10 uM": -3.35}, {"smiles": "COC(=O)c1ccc(/C=c2\\sc3n(c2=O)C(N)=C(C#N)C(c2ccc(C(=O)OC)cc2)C=3C#N)cc1", "note": "(stereo not drawn)", "% Inhibition @ 10 uM": 8.06}]}]}
